# From PubChem BioAssay AID1656 (Sanford-Burnham Center for Chemical Genomics, 2009)
# The other results are listed elsewhere or left out. The main result of the screen is listed elsewhere. These columns were measured beside it and carry no call. Compounds called inactive in the main read-out are mostly missing here.
# Test: oleate-induced lipid droplet accumulation in AML12 cells – imaging, high-throughput imaging, BODIPY stain, primary screen (AID 1656);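 also: cells counted across two imaged fields per well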
# Settings: AML12 mouse hepatocytes, oleate lipid droplets, measured here: cell count, cytotoxicity flag, at 6.5 µM
# How it was run: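 Assay system: AML12 mouse liver cells | Compound dosing: One dose, 6.5 µM compound | Read-out basis: Droplet intensity reduction, % inhibition | Measured by: Fluorescence imaging, 20x objective, two fields per well | Schedule: Overnight treatment with compound plus oleate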
row,Compound,cell count [cells]
1,CCCOC(=O)c1ccc(NC(=O)CCOc2ccccc2)cc1,750
2,Cc1c(C(=O)O)sc2nc3n(c(=O)c12)CCC(C)CC3 (stereo not given),716
3,O=C(CCC(=O)c1ccc(F)cc1)Nc1cccc(S(=O)(=O)Nc2cccc(Cl)c2)c1,787
4,Cc1sc(NC(=O)c2ccco2)c(C(Nc2ccccn2)c2ccccc2)c1C (stereo not given),148
5,Cc1sc(NC(=O)Cc2ccc3c(c2)OCO3)nc1-c1ccc2c(c1)CCN2C(=O)c1ccccc1F,624
6,CC1CCN(C2=C(NS(=O)(=O)c3ccc(Br)cc3)C(=O)c3ccccc3C2=O)CC1,737
7,CCOc1ccc(CCNC(=O)Cn2c(-c3nonc3N)nc3ccccc32)cc1OCC,761
8,CCOc1ccc(CN(C)C(=O)CNC(=O)c2ccc(Br)o2)cc1OC,759
9,CCN1CCN(c2cc(C(C)C)nc3c(-c4ccccc4)c(C)nn23)CC1,695
10,Cc1ccc(CN2CCN(c3ccccc3)CC2)o1,791
11,CCOc1ccc(N2CC(C(=O)NCCc3ccc(F)cc3)CC2=O)cc1 (stereo not given),39
12,COc1cc(C2C(C#N)=C(N)Oc3cc(N)ccc32)cc(OC)c1OC (stereo not given),223
13,COc1ccccc1NS(=O)(=O)c1ccc(N/N=C/c2c(C)nn(-c3ccccc3)c2N2CCCC2)c([N+](=O)[O-])c1,636
14,CSCCOC(=O)c1[nH]c2c(c1C)C(=O)CC(c1ccco1)C2 (stereo not given),168
15,CCCN1C(=O)/C(=C\C=C2\N(CC)c3ccccc3C2(C)C)SC1=S,689
16,COc1ccc(N(C(=O)CCl)C(C(=O)NCCc2ccccc2)c2cccs2)cc1Cl (stereo not given),594
17,COc1ccc(C(C#N)N2CCOCC2)cc1 (stereo not given),753
18,Cc1ccc(NS(=O)(=O)c2ccc(-c3cnc(C4CC4)o3)cc2)c(C)c1,218
19,OC(COc1ccc2cc(Br)ccc2c1)Cn1ccnc1 (stereo not given),803
20,Cc1c(C(=O)N/N=C/c2ccc(N(C)C)cc2)[nH]c2ccc(Cl)cc12,234
21,COCCCN=C1NN=C(c2cc(C)n(Cc3ccco3)c2C)CS1,37
22,CCNc1nc(N)c(C(=O)c2ccc(Cl)s2)s1,781
23,O=C(Nc1nc(-c2ccc(-c3ccccc3)cc2)cs1)C1CCCO1 (stereo not given),829
24,COc1cc(C(=S)N2CCOCC2)cc(OC)c1OC(=O)c1ccccc1[N+](=O)[O-],793
25,COCc1ccc(C(=O)NC2CCCc3c2cnn3-c2ccc(C)c(C)c2)o1 (stereo not given),824

row,Compound,cell count [cells]
1,Cc1ccc(-c2ccc(/C=C3\SC(N4CCOCC4)=NC3=O)o2)cc1,147
2,COc1ccc(NC(=O)CSc2nc3ccccc3nc2N2CCCCC2)cc1,723
3,CCOC(=O)C1=C(C)n2c(s/c(=C3\C(=O)Nc4ccccc43)c2=O)=NC1c1ccc(OC)cc1 (stereo not given),685
4,CCCC1(c2ccccc2)NC(=O)N(CC(=O)Nc2cc(C)ccc2OC)C1=O (stereo not given),803
5,CC(C)(C)NC(=O)CSC(=Nc1ccccc1F)NC#N,248
6,CC(C)C(C)NC(=O)CSc1nc2scc(-c3ccco3)c2c(=O)n1-c1ccccc1 (stereo not given),752
7,Cc1cccc(NC(=O)c2nc[nH]c2C(=O)NCC(=O)OC(C)(C)C)c1,674
8,CCN(CC)CCNC(CC(=O)Nc1ccc(Cl)cc1Cl)C(=O)O (stereo not given),721
9,CCOC(=O)c1ccc(NC(=O)CSc2nc3c(c(=O)n2CC)SC(C)C3)cc1 (stereo not given),714
10,O=C(c1ccccc1)c1cc([N+](=O)[O-])ccc1N1CCOCC1,267
11,Cc1ccc(C(NC(=O)C2CCCCC2)c2c(O)ccc3ccccc23)cc1 (stereo not given),636
12,Cc1ccc(-c2c(C(=O)NC(C)C)oc(=O)c3ccccc23)cc1,753
13,COc1ccc2nc(N=Nc3ccc(O)c4ccccc34)sc2c1,559
14,CCOc1ccc(CCNC(=O)COC(=O)/C=C/c2ccc(C)o2)cc1OCC,801
15,Cc1cccc(NC(=O)CSc2nnc(C)c(=O)n2N)c1,743
16,O=[N+]([O-])c1sccc1CS(=O)(=O)c1ccccc1,737
17,C/C=C(/C)C(=O)O[C@@H]1[C@H](OC(=O)C=C(C)C)c2c(ccc3ccc(=O)oc23)OC1(C)C,761
18,COc1ccc(/C=C(/NC(=O)c2cccs2)C(=O)Nc2ccc(C)cc2)cc1OC,720
19,CCCOc1ccc(-c2csc(NC(=O)CN3C(=O)CCC3=O)n2)cc1,652
20,CN(C)S(=O)(=O)c1cccc(NC(=O)CC23CC4CC(CC(C4)C2)C3)c1,830
21,C/C(=N\NC(=O)c1c(Cl)c(C)nn1C)c1ccc(NC(=O)C2CCC2)cc1,282
22,Cc1ccc(-c2cc(-c3c(C)nn(C)c(=O)c3N)[nH]n2)cc1,755
23,CCN(Cc1ccccc1)C(=O)C1CCN(C(=O)Nc2ccccc2)CC1,825
24,COc1ccc2nc(N=Nc3c(O)ccc4ccccc34)sc2c1,559
25,Cc1ccccc1C(=O)NC1CCN(Cc2nnnn2C2CCCC2)CC1,724

row,Compound,cell count [cells]
1,CSc1ccccc1NC(=O)C1=CC(c2cccs2)=NS(=O)(=O)N1C,757
2,O=[N+]([O-])c1ccc(-[n+]2nc(-c3ccccc3)nn2-c2ccccc2)cc1,797
3,Oc1[nH]c2ccccc2c1N=Nc1nc(Nc2ccccc2)nc(N2CCOCC2)n1,574
4,CC(C)C(=O)N(Nc1nc2ccccc2s1)C(=O)C(C)C,658
5,Cc1c(/C=N\NC(=O)C2COc3ccccc3O2)c2ccccc2n1C (stereo not given),227
6,COc1ccc(CCNC(=O)c2cc3c(F)cccc3s2)cc1OC,798
7,C#CCn1c(=NC(=O)c2sc3ccccc3c2Cl)sc2cc(S(N)(=O)=O)ccc21,264
8,C=CCOC(=O)c1[nH]c2c(c1C)C(=O)CC(c1ccco1)C2 (stereo not given),196
9,O=c1cc(-c2ccccc2)[nH]c2cc(Cl)ccc12,292
10,Cc1ccc(/C=N/NC(=O)c2cc(-c3cccnc3)nc3ccccc23)cc1,225
11,C#CC(=O)N(c1ccc(OC)c(OC)c1)C(C(=O)NC1CCCC1)c1cccs1 (stereo not given),566
12,Cc1cc(C)cc(NC(=O)CCC(=O)Nc2cc(C)on2)c1,771
13,Cc1ccc(-c2cc(C(=O)N/N=C/c3c(C)nn(-c4ccccc4)c3C)[nH]n2)cc1,283
14,CC(C)CCOc1ccc(C(=O)NCC(c2ccco2)N(C)C)cc1 (stereo not given),814
15,Cc1nn(-c2ccccc2)c(C)c1/C=N/NC(=O)c1cc(-c2ccccc2)n[nH]1,215
16,CC(C)n1c(O)c(N=NC(=O)C2COc3ccccc3O2)c2ccccc21 (stereo not given),749
17,Cc1cc(C(c2ccc(O)cc2)c2cc(C)c(O)cc2C)c(C)cc1O,798
18,Cc1ccc(Cn2c(=N)n(CC(=O)c3ccc([N+](=O)[O-])cc3)c3ccccc32)cc1,285
19,O=C(NCc1ccccc1)C(c1ccccc1F)N(C(=O)c1csnn1)C1CCCC1 (stereo not given),802
20,O=C(NCCc1ccccc1)c1oc2ccccc2c1COc1ccccc1,678
21,Cc1cc2nn(-c3ccc(Cl)cc3)nc2cc1N,809
22,O=C(Nc1ccc(-c2csc(Nc3ccc(Cl)cc3)n2)cc1)c1cccc(C(F)(F)F)c1,721
23,C#CC(=O)N(c1ccc(OC)cc1OC)C(C(=O)NC1CCCC1)c1cccs1 (stereo not given),614
24,CC(C)Oc1ccc(C(=O)OC(C)C(=O)Nc2nc(-c3cccc([N+](=O)[O-])c3)cs2)cc1 (stereo not given),720
25,Cc1cc(N(CCO)CCO)ccc1N=Nc1cc(F)ccc1F,691

row,Compound,cell count [cells]
1,COc1ccc(S(=O)(=O)N2CCOCC2)cc1NC(=O)c1ccccc1C,621
2,Cc1ccc(-c2cc(C(F)F)n3ncc(C(=O)N4CCc5ccccc54)c3n2)cc1,123
3,CCC(C)C(=O)N1c2ccccc2C(=C2SC(C(=O)OC)=C(C(=O)OC)S2)C(=S)C1(C)C (stereo not given),615
4,CCOc1ccccc1CNS(=O)(=O)c1ccc(-c2cnc(C3CC3)o2)cc1,288
5,COc1ccc(-c2cnc(SCC(=O)Nc3nc(C(C)(C)C)cs3)n2Cc2ccco2)cc1,689
6,CN(C)CCCN(C(=O)c1ccc2ccccc2c1)c1nc2cc3c(cc2s1)OCO3,837
7,COc1ccccc1Nc1ccc(NS(=O)(=O)c2ccc(C(C)=O)cc2)cc1,782
8,CS(=O)(=O)N(Cc1ccc(Cl)cc1)c1ccc(C(=O)N/N=C/c2cc3ccccc3nc2Cl)cc1,577
9,O=C(COc1ccc(C2SCCS2)cc1)Nc1ccc(Cl)cc1,248
10,Cc1nccn1S(=O)(=O)c1cc([N+](=O)[O-])ccc1Cl,13
11,O=[N+]([O-])c1cc2c(c(CSc3nnc(Nc4ccccc4)s3)c1)OCOC2,740
12,O=C1C(NS(=O)(=O)c2cccs2)=C(N2CCN(c3cccc(Cl)c3)CC2)C(=O)c2ccccc21,765
13,COC(=O)c1cc(C(=O)N2CCN(c3ccccc3OC)CC2)cc([N+](=O)[O-])c1,265
14,O=C(N/N=C/C(Br)=C\c1ccccc1)c1n[nH]c2c1CCC2,257
15,O=C(N/N=C/c1ccccc1OC(F)F)c1cc(-c2ccncc2)nc2ccccc12,204
16,COc1cccc(CNC(=O)CCCc2c[nH]c3ccccc23)c1,860
17,CCOc1ccc(CCNC(=O)CSc2cc(=O)n(CC)c3ccccc23)cc1OCC,636
18,Cc1ccc(S(=O)(=O)N(C)c2ccc(OCC(=O)Nc3nc4ccccc4s3)cc2)cc1,296
19,O=C1c2cccc3cc([N+](=O)[O-])cc(c23)C(=O)N1CCN1CCCC1,197
20,O=c1[nH]c(=O)n(Cc2ccccc2)c2nc(-c3ccc(Oc4ccc(F)cc4)c([N+](=O)[O-])c3)n(CCO)c12,748
21,COc1ccc(N=NC2C(=O)N(c3ccccc3)N=C2C)cc1 (stereo not given),606
22,Cc1cc(C)cc(NS(=O)(=O)c2ccc(-c3cnc(C4CC4)o3)cc2)c1,228
23,O=C(Oc1cccc(/C=N/Nc2nc(Nc3ccccc3)nc(N3CCOCC3)n2)c1)c1ccco1,587
24,COC(=O)c1ccc(NS(=O)(=O)c2ccc3c(c2)n(C)c(=O)n3C)cc1,810
25,COc1cccc(CNC(=O)C2CCCN(S(=O)(=O)c3c(C)noc3/C=C/N(C)C)C2)c1 (stereo not given),688
